Experimental findings from PubChem BioAssay AID602293 (National Center for Advancing Translational Sciences (NCATS), 2012) are described below.

Hit rate of the full screen: of about 1,300 compounds, about 30 (2%) were called active. About 10% were inconclusive and are not listed. Calls come from the whole dose curve; as a rule, active = well fitted inhibition curve with a large enough effect; inconclusive = small, poorly fitted or top-dose-only effect; inactive = flat fitted curve, though single readings scatter. Some of the results follow.
% is set by controls: 0 for no effect and ±100 for the full control effect; potency is the fitted concentration of half-maximal effect.

This assay can be described thus: qHTS for antagonists of the Thyroid Stimulation Hormone Receptor: Hit Validation in HTRF Activity in a Luteinizing Hormone Receptor Cell Line. The conditions noted are these: LHR-expressing cell line, cAMP HTRF, antagonist mode; series mostly up to 58 µM; activity change, negative = inhibition: at the top concentration. A digest of the protocol:
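HEK 293 cells stably expressing LH receptor, in DMEM with 10% FCS and 100 uM RO 20-1724, incubated with compound 30 min at room temperature. cAMP measured by competitive HTRF (anti-cAMP cryptate vs cAMP-d2), excitation 330 nm, emissions 615 and 660 nm.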
For orientation: In qHTS, concentration-response curves come from the screen itself.
With `CC1(C)CC2(CCCN3C(=O)CSC32)CCS1` (stereo unspecified), the “activity change, negative = inhibition” value was inactive: -0.704%. Turning to `CC(=O)N1c2ccc(S(=O)(=O)NCCC(=O)Nc3ccccc3C)cc2CC1C` (stereo unspecified), the “activity change, negative = inhibition” value was inactive: 3.24%. Still for that read-out and setting: for `Cc1nn(-c2ccccc2)c(C)c1NC(=O)COc1ccc(Br)cc1Cl` the value was inactive: -4.2%; for `Cc1cccc(N2CCN(S(=O)(=O)c3ccc4c(c3)NC(=O)CS4)CC2)c1C`, inactive: -1.48%; for `O=[N+]([O-])c1ccc(N=Nc2c(Cl)cc(O)cc2Cl)cc1`, inactive: -4.86%. Still for that read-out and setting: the figure for `COc1ccc(C(=O)N2CCN(c3ccc([N+](=O)[O-])c(NCCc4ccc(OC)c(OC)c4)c3)CC2)cc1` is inactive: -8.33%; for `COc1ccc(Cc2nc(-c3ccc(-n4cccc4)cc3)no2)cc1OC` it is inactive: -3.5%; for `Cc1ccccc1NC(=O)C1C2CCCCC21` (stereo unspecified) it is inactive: 0.0637%. For the compound `O=C(OCc1cc(Cl)ccc1OC(F)F)c1cncc(Br)c1`, the “activity change, negative = inhibition” value is inactive: -2.59%. In the case of `CCN(c1ccccc1)S(=O)(=O)c1ccc(NC(=O)c2nc(S(C)(=O)=O)ncc2Cl)cc1`, the Potency is active: 33.8 µM. As to `CC1CCCC(NC(=O)CN2C(=O)COc3ccccc32)C1C` (stereo unspecified), the “activity change, negative = inhibition” value was inactive: 0.207%. On the same count and under the same terms, for `CC(C)Nc1nc(SC(C)C(=O)Nc2ccccc2)nc(N(C)C)n1` (stereo unspecified) the value was inactive: -0.795%. On the same count and under the same terms, for `CCOC(=O)c1cccc(OCC(O)CNCCOc2ccccc2F)c1` (stereo unspecified) the value was inactive: 1.06%; for `Cc1ccc(S(=O)(=O)N2CCN(C(=O)Cc3ccsc3)CC2)c(C)c1`, inactive: 3.65%; for `CC(=O)NC12CC3CC(C1)CC(C(=O)OCC(=O)c1ccc4c(c1)OCCO4)(C3)C2`, inactive: 1.63%. The same measure, in the same setting: the figure for `CC1CC(C)CN(CCCNC(=O)CN2C(=O)COc3ccc(S(=O)(=O)N4CCOCC4)cc32)C1` (stereo unspecified) is inactive: 0.256%; for `Cc1ccc(Nc2nc(N3CCOCC3)nc(N3CCOCC3)n2)cc1Cl` it is inactive: -0.121%. `CCCc1nnc(NC(=O)c2nc(S(=O)(=O)Cc3cccc(C)c3)ncc2Cl)s1`: the “activity change, negative = inhibition” value was inactive: -2.86%. Regarding `O=C(c1ccco1)N1CCN(c2ncnc3c2nnn3Cc2ccccc2Cl)CC1`, the “activity change, negative = inhibition” value was inactive: -2.54%.

For the compound `COC(=O)CSc1nc(-c2ccccc2)cc(-c2ccco2)c1C#N`, the “activity change, negative = inhibition” value was inactive: -0.177%.

On to `O=C(O)c1nn(CC(=O)N2CCN(c3ncc(C(F)(F)F)cc3Cl)CC2)c(=O)c2ccccc12`, for which the “activity change, negative = inhibition” value was inactive: -0.623%. On the same count and under the same terms, for `CCOC(=O)c1sc(NC(=O)c2cc(-c3ccccc3)nc3ccccc23)c(C#N)c1C` the value was inactive: -1.11%; for `O=C(CNc1ccc(C(F)(F)F)cc1)Nc1cccc(S(=O)(=O)N2CCCC2)c1`, inactive: -0.726%; for `CC(C)N(Cc1ccccc1)C(=O)COC(=O)c1cnc(Cl)c(Cl)c1`, inactive: -3.98%. On to `Cc1ccc(S(=O)(=O)c2c(C(=O)c3ccccc3)cnc3cc4c(cc23)OCCO4)cc1`, for which the “activity change, negative = inhibition” value was inactive: -0.498%.

Turning to `Cc1ccccc1N1CCN(C2CCCN(C(=O)c3cnsn3)C2)CC1` (stereo unspecified), the “activity change, negative = inhibition” value was inactive: 2.18%. Same read-out and setting: for `CCCCOc1ccc(/C=N/Nc2cc(N3CCOCC3)nc(C)n2)cc1` the value was inactive: -3.37%.

Take `CCC(C)NC(=O)CN1C(=O)CSc2ccc(S(=O)(=O)N3CCCC3)cc21` (stereo unspecified): the “activity change, negative = inhibition” value is inactive: 0.925%.

In the case of `COc1ccc(-c2cn(CCCOCc3ccccc3)nn2)cc1`, the “activity change, negative = inhibition” value was inactive: 3.13%. With `COc1ccc(NS(=O)(=O)c2cn(C)cn2)cc1Cl`, the “activity change, negative = inhibition” value is inactive: 0.0459%. The same measure, in the same setting: the figure for `CCCN1CCN(CCCNC(=O)Cn2nc(C)n3c(cc4cc(OC)ccc43)c2=O)CC1` is inactive: -0.0841%; for `O=C(NC1CCCCC1)C(c1cccs1)N(Cc1cccs1)C(=O)c1cccs1` (stereo unspecified) it is inactive: -9.17%.

Take `O=c1[nH]cccc1-c1nc2ccccc2n1Cc1ccc(F)cc1`: the “activity change, negative = inhibition” value was inactive: 0.695%. The same measure, in the same setting: for `COC(=O)c1c(NC(NC(C)=O)C(Cl)(Cl)Cl)sc2c1CCCC2` (stereo unspecified) the value was inactive: 1%; for `COc1ccc(S(=O)(=O)Nc2ccccc2C(=O)Nc2nc(-c3ccc(F)cc3)cs2)cc1OC`, inactive: -2.16%.

On to `Cc1sc(N/N=C/c2cccnc2)nc1-c1ccccc1`, for which the “activity change, negative = inhibition” value is inactive: -4.09%. With `CCOc1ccc2nc(NC(=O)CS(=O)(=O)c3ccccc3)sc2c1`, the “activity change, negative = inhibition” value was inactive: 2.76%. With `CS(=O)(=O)N(Cc1ccccc1)c1ccc(C(=O)N2CCN(c3cccc(Cl)c3)CC2)cc1`, the “activity change, negative = inhibition” value is inactive: 2.28%. On the same count and under the same terms, for `CCSc1ccc(C(=O)Nc2ccc(Br)cn2)cc1[N+](=O)[O-]` the value was inactive: 1.58%; for `Cc1cccc(OCC(=O)Nc2nc3ccc([N+](=O)[O-])cc3s2)c1C`, inactive: 2.41%. Regarding `COc1cccc(C(=O)Nc2ccc(NC(=O)C3CCCCC3)nc2)c1`, the “activity change, negative = inhibition” value was inactive: -1.05%. The same measure, in the same setting: for `CCOc1ccc(C2NC(=O)c3ccccc3O2)cc1OC` (stereo unspecified) the value was inactive: 2.7%; for `COc1ccc(N2CCN(c3ncnc4sc(C(=O)NCC5CCCO5)c(C)c34)CC2)cc1` (stereo unspecified), inactive: 1.47%; for `CC1CCN(S(=O)(=O)c2nnc(NC(=O)c3cccc([N+](=O)[O-])c3)s2)CC1`, inactive: 0.131%. For `CCCCCc1c2c(cc(O)c1C(=O)O)OC(=O)c1c(cc(OC)cc1C(=O)CCCC)O2`, the “activity change, negative = inhibition” value was inactive: 0.38%. Same read-out and setting: for `Cc1ccc(NC(=O)Nc2ccc3c(c2)OCO3)c(OC(F)F)c1` the value was inactive: -1.96%; for `Cc1ccc(C2=NS(=O)(=O)N(C)C(C(=O)NCc3ccc(F)cc3)=C2)cc1`, inactive: 1.7%; for `C=CCN1C(=O)/C(=C/c2ccc(OC(C)=O)c(OCC)c2[N+](=O)[O-])SC1=S`, inactive: 1.82%.

For `O=C(Nc1ccc(C(=O)NCc2ccccc2Cl)cc1)C1=CSCCO1`, the “activity change, negative = inhibition” value is inactive: 0.338%.

Take `CNS(=O)(=O)c1cccc(C(=O)OCC(=O)N2c3ccccc3NC(=O)C2(C)C)c1`: the “activity change, negative = inhibition” value is inactive: 3.43%.

With `Cc1cccc(-c2noc(CN(C)C(=O)c3ccco3)n2)c1`, the “activity change, negative = inhibition” value was inactive: 0.022%.
